# PubChem BioAssay AID651820 (National Center for Advancing Translational Sciences (NCATS), 2012)
# Values joined by “and” are separate entries in the source; they are usually repeats but may differ in a detail not shown here. Equal values may be shown once. The campaign covered roughly 340,000 compounds. About 12,000 (3.5%) were called active. The inconclusive results got no clear call from the source; some entries with a clear call stand among them for comparison. Calls follow the shape of the dose curve; as a rule, active = well fitted inhibition curve with a large enough effect; inconclusive = small, poorly fitted or top-dose-only effect, or another doubt; inactive = no such curve, though single readings can be large or run the other way. Potencies beside an inconclusive call are fits to weak or partial responses and may not hold up.
# Experiment: qHTS Assay for Inhibitors of Hepatitis C Virus (HCV)
# Settings: Huh7.5.1 HCVcc-Cre (HCVcc is cell-culture hepatitis C virus) infection, luciferase reporter, 44 h; activity change, negative = inhibition: at 41.8 µM (top of the series) unless noted
# Summary of the method: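 1,000 cells/well; 4 h culture; + compound; + HCVcc-Cre (~0.5 moi); 44 h; luciferase substrate, RT 15 min; read 15 sec.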
# % is scaled to controls: 0 for no effect and ±100 for the full control effect; potency is read from the fitted curve at half-maximal effect; tags tell the direction and shape of the fitted curve.
SMILES,Potency,"activity change, negative = inhibition"
Nc1ccc2c(c1)C(=O)c1ccccc1C2=O,"inconclusive: 31.6 µM [inhibitor, single point]",–
CCC(C)(C)NC(=O)c1cc(OC)c(OC)cc1[N+](=O)[O-],inactive,–
CCOC(=O)c1c(C)n(C)c2ccc(OC(=O)c3ccc([N+](=O)[O-])cc3)cc12,inactive,–
O=c1nc(N2CCCC2)nc(N2CCCC2)[nH]1,inactive,–
CCOc1cc(/C=C(/NC(C)=O)C(=O)O)cc(Cl)c1OCc1cccc(Br)c1,inactive,–
O=C(N/N=C/c1ccc2c(c1)OCO2)c1cc(-c2ccncc2)nc2ccccc12,"inconclusive: 10 µM [inhibitor, partial curve]",–
CN(C)c1ccc(O)c2c1CC1CC3[C@@H](N(C)C)C(=O)C(C(N)=O)=C(O)[C@]3(O)C(=O)C1=C2O (some centres undefined),–,inactive: 5.54% [at 8.37 µM]
Cc1ccc(NC(=O)Cn2c(C)csc2=O)cc1,inactive,–
CCOC(=O)COc1c(OC)cc(Cl)cc1C1Nc2ccccc2C(=O)N1c1cccc(C)c1 (centres undefined),"inconclusive: 35.5 µM [inhibitor, partial curve, poor fit]",–
CCn1c(SCc2ccc(C)cc2)nnc1C1CCN(S(=O)(=O)c2ccc(OC)cc2)CC1,"inconclusive: 31.6 µM [inhibitor, single point]",–
Cc1ccc(CN=c2c([N+](=O)[O-])nn(-c3ccc4c(c3)OCCO4)n2O)cc1,"inconclusive: 10 µM [inhibitor, partial curve]",–
CCN(CC)CCNC(=S)NC(=O)c1cn(-c2ccccc2)nc1-c1ccc(OC)cc1,active: 22.4 µM,–
O=C(NC1CCCCC1)C(c1cccnc1)N(C(=O)c1csnn1)c1ccccc1 (centres undefined),inactive,–
CCOC(=O)c1c(C)[nH]c(C(=O)OCCOc2ccc(Cl)cc2)c1C,"inconclusive: 25.1 µM [inhibitor, single point]",–
CCc1ccc(NC(=O)NCCN2CCN(c3ccc(OC)cc3)CC2)cc1,inactive,–
CCn1c(SCC#N)nc2c(c1=O)C1(CCCC1)Cc1ccccc1-2,"inconclusive: 17.8 µM [inhibitor, single point]",–
CCOC(=O)C1=C(O)/C(=C/c2cc(OC)c(OC)c(OC)c2)SC1=Nc1ccc(OC)cc1,"inconclusive: 0.891 µM [inhibitor, full curve]",–
Cc1cc(Nc2ccccc2)nc(-c2ccccc2O)n1,active: 0.631 µM,–
NC(=O)Cc1ccc(C(=O)c2ccc(F)cc2)s1,inactive,–
Cc1ccc(OCC(=O)NNC(=O)Cc2ccc(S(=O)(=O)N3CCOCC3)s2)cc1,"inconclusive: 25.1 µM [inhibitor, single point]",–
CCOC(=O)C1CCN(C(=O)c2ccc(OCC(=O)Nc3cccc(C(F)(F)F)c3)c(OC)c2)CC1,active: 2.82 µM,–
O=C(/C=C/c1ccc(F)cc1)NC(=S)NNC(=O)[C@H]1C[C@@H]1c1ccccc1,"inconclusive: 12.6 µM [inhibitor, partial curve]",–
Nc1ccccc1Nc1nc2ccccc2[nH]1,"inconclusive: 31.6 µM [inhibitor, single point]",–

SMILES,Potency,"activity change, negative = inhibition"
COc1ccc(-n2ncc3c2CC(C)(C)CC3NC(=O)CN2CCOC2=O)cc1 (centres undefined),"inconclusive: 31.6 µM [inhibitor, single point]",–
O=C(COC(=O)c1ccc(S(=O)(=O)N2CCCC2)cc1)Nc1cccc(Br)c1,inactive,–
CCn1c(NCc2cc(Cl)ccc2O)nc2ccccc21,active: 31.6 µM,–
CC1=C2C(=O)C3C(CC=C4CC(O)CCC43C)C2CCC12OC1CC(C)CNC1C2C (centres undefined),inactive,–
CNc1nc(Sc2ccc(C)cc2)cc(C(F)(F)F)n1,"inconclusive: 35.5 µM [inhibitor, partial curve]",–
N#CCc1cc2ccc3cccc4ccc(c1)c2c34,"inconclusive: 31.6 µM [inhibitor, single point]",–
O=C(OCCCCN1C(=O)c2ccccc2C1=O)c1n[nH]c2ccccc12,"inconclusive: 10 µM [inhibitor, partial curve]",–
CC(C)(C)OC(=O)N(Cc1ccccc1)Cc1ccc(OCc2cccc(NC(=O)c3ccccc3)c2)cc1,–,inactive: -4.99% [at 8.37 µM]
CC(C)CCNC(=O)c1cc(C(=O)c2cc(F)ccc2O)cn(CCC(C)C)c1=O,"inconclusive: 12.6 µM [inhibitor, partial curve]",–
O=c1cc(C(F)(F)F)[nH]c2ccc(C(F)(F)F)cc12,"inconclusive: 31.6 µM [inhibitor, single point]",–
CCOC(=O)/C(C#N)=C/c1c[nH]c2ccccc12,"inconclusive: 22.4 µM [inhibitor, single point] and inconclusive: 35.5 µM [inhibitor, partial curve]",–
Cc1ccc(-n2c(N)c(C(=O)NCc3cccnc3)sc2=S)cc1,"inconclusive: 1.78 µM [inhibitor, full curve, poor fit]",–
O=C(NCCS(=O)(=O)N1CCc2ccccc2C1)c1ccccc1,"inconclusive: 25.1 µM [inhibitor, single point]",–
CC1CC(C)CN(S(=O)(=O)c2cc3c4c(c2)CCC(=O)N4CCC3)C1 (centres undefined),"inconclusive: 8.91 µM [inhibitor, partial curve]",–
Nc1c(C(=O)NCCN2CCOCC2)c2nc3ccccc3nc2n1CCc1ccccc1F,"inconclusive: 31.6 µM [inhibitor, single point]",–
c1csc(Cc2nn3c(-c4n[nH]c5c4CCC5)nnc3s2)c1,"inconclusive: 10 µM [inhibitor, partial curve]",–
Cc1ccc(S(=O)(=O)N2CCN(C(=O)c3cc(S(=O)(=O)N4CCOCC4)ccc3Cl)CC2)c(C)c1,"inconclusive: 31.6 µM [inhibitor, single point]",–
CC(C)C(Nc1ncnc2c1oc1ccccc12)C(=O)O (centres undefined),inactive,–
O=C(CCCN1C(=O)/C(=C/c2cccs2)SC1=S)Nc1ccccc1O,"inconclusive: 8.91 µM [inhibitor, partial curve]",–
CC(=O)c1c(C)[nH]c(C(=O)N2CCN(c3cc(Cl)ccc3C)CC2)c1C,"inconclusive: 7.94 µM [inhibitor, partial curve]",–
COc1ccc(CNC(=O)c2ccc(Cl)c(S(=O)(=O)N3CCOCC3)c2)cc1OC,"inconclusive: 3.98 µM [inhibitor, full curve]",–
COc1ccccc1S(=O)(=O)Nc1cc(C)nn1-c1ccc(C)cc1,inactive,–
ON=C1c2ccccc2-c2cc(Br)ccc21,"inconclusive: 31.6 µM [inhibitor, single point]",–

SMILES,Potency,"activity change, negative = inhibition"
CCCCn1c(SCC(=O)OCC)nc2c(sc(=S)n2-c2ccccc2OC)c1=O,inactive,–
CCOC(=O)c1cccc(NC(=O)c2cnc3ccccc3n2)c1,"inconclusive: 10 µM [inhibitor, single point]",–
Clc1ccc2c(c1)C(N1CCNCC1)=Nc1ccccc1O2,"inconclusive: 10 µM [inhibitor, partial curve]",–
COc1ccc(-c2cc(CCC(=O)N3CCN(c4cc(C)ccc4C)CC3)on2)cc1,"inconclusive: 28.2 µM [inhibitor, single point]",–
OCCN(CCO)c1ccc(C(c2ccccc2Cl)c2ccc(N(CCO)CCO)cc2Cl)c(Cl)c1,"inconclusive: 35.5 µM [inhibitor, partial curve, poor fit]",–
COc1ccc2c(c1OC)C(=O)N(c1ccc(F)cc1)C2,inactive,–
CCN(CC(=O)Nc1cccc(S(=O)(=O)N(C)c2ccccc2)c1)Cc1cccs1,active: 35.5 µM,–
O=C(NN=Cc1ccccc1O)C(O)(c1ccccc1)c1ccccc1,"inconclusive: 8.91 µM [inhibitor, partial curve]",–
COc1ccc(NC(=O)c2sc3ncnc(N4CCN(c5ccccn5)CC4)c3c2C)cc1Cl,active: 6.31 µM,–
CS(=O)(=O)Nc1ccc(-c2ccc(/C=C3\SC(N)=NC3=O)o2)cc1,inactive,–
CCC(CO)Oc1cc(NCc2ccccc2F)c2ncn(C(C)C)c2c1 (centres undefined),"inconclusive: 7.08 µM [inhibitor, partial curve]",–
NS(=O)(=O)c1ccc(N2N=C(c3ccccc3)CC2c2cccc(Cl)c2)cc1 (centres undefined),"inconclusive: 10 µM [inhibitor, partial curve]",–
COc1ccc2c(c1)CC(C(=O)Nc1ccc(Cl)cc1)/C(=N/O)O2 (centres undefined),–,inconclusive: -49.1% [inhibitor]
Cc1ccccc1-n1c(O)c(/C=C2/C(c3ccccc3)=Nc3ccccc32)c(=O)[nH]c1=O,"inconclusive: 10 µM [inhibitor, partial curve, poor fit]",–
Cc1ccc2nc(SCc3ccccc3)c(C=O)c(=O)n2c1,"inconclusive: 14.1 µM [inhibitor, single point]",–
Cc1ccc2[nH]c(=O)c3cc(C(=O)NCCC(C)C)sc3c2c1,"inconclusive: 11.2 µM [inhibitor, single point]",–
COc1cccc(CC2(CO)CCCN(Cc3[nH]c4ccc(C)cc4c3C)C2)c1 (centres undefined),"inconclusive: 14.1 µM [inhibitor, single point]",–
O=S(=O)(c1ccc(Cl)s1)N1CCCc2cccc(O)c21,"inconclusive: 31.6 µM [inhibitor, single point]",–
CCOC(=O)c1c(CN2CCOCC2)oc2ccc(OC)cc12,inactive,–
N#CCSc1nc2c(sc(=S)n2Cc2ccco2)c(=O)n1-c1ccc(F)cc1,"inconclusive: 31.6 µM [inhibitor, single point]",–
C[n+]1ccccc1/C=C/c1ccc2ncccc2c1,inactive,–
Cc1ccc(S(=O)(=O)Cc2sc3ccccc3[n+]2C)cc1,"inconclusive: 25.1 µM [inhibitor, single point]",–
Cc1ccc(C)c2c1N(Cc1ccccc1)C(=O)C21OCCO1,inactive,–
